Results on 86 compounds are retold here after article PMC4336329 (PLoS ONE, 2015).

Screen size: about 310,000 compounds; about 2,200 (0.71%) showed an effect of 50% or more. The effect is printed as a negative number. Some of the results follow.

human ether-à-go-go-related gene (hERG) potassium channel, sequence (Q12809 whole entry, looked up): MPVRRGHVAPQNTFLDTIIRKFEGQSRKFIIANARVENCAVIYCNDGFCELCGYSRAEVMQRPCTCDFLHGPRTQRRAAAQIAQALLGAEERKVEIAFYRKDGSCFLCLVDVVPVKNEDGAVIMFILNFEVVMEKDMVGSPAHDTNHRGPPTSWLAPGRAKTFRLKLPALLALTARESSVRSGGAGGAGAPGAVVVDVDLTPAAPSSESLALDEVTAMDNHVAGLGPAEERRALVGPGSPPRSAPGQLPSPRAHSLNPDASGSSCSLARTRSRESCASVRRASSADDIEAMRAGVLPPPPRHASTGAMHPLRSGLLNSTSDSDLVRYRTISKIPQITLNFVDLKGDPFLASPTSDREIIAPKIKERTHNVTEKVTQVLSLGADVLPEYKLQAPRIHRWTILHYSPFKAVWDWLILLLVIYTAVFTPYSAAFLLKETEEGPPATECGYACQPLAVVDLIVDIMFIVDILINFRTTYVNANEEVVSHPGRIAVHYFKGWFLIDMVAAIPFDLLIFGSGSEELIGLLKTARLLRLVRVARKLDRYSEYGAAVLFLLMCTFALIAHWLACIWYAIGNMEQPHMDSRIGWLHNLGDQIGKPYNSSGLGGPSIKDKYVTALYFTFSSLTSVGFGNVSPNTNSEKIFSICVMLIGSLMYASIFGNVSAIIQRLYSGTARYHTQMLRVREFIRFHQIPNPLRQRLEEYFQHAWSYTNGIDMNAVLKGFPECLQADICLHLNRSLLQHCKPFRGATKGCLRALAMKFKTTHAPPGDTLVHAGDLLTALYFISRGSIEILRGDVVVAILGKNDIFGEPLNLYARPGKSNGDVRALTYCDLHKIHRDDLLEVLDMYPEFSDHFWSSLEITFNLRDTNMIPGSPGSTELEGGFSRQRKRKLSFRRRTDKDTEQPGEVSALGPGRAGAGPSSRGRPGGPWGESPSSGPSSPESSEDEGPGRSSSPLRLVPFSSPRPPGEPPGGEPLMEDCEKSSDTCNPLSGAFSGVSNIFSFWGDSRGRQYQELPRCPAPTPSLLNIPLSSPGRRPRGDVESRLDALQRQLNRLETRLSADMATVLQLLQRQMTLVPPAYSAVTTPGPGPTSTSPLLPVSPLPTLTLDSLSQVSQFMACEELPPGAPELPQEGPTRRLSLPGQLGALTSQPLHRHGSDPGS

The assay concerns the target human ether-à-go-go-related gene (hERG) potassium channel (human, UniProt Q12809). The assay is described as follows: primary screen, population patch clamp on CHO cells stably expressing hERG.
As to `O=C(COC(=O)c1ccc(O)cc1)NCC1CCCO1` (centres unmarked), the “hERG current change (%, negative = inhibition) at 1uM” value is 17.3%. `COc1ccc(C(=O)N2CCN(S(=O)(=O)c3cc(Cl)ccc3OC)CC2)cc1`: the “hERG current change (%, negative = inhibition) at 1uM” value was 3.46%.

`COC(=O)/C=C/C(=O)Nc1cccnc1`: the “hERG current change (%, negative = inhibition) at 1uM” value was determined as 3.5%. The same measure for `CCCc1nc2c(o1)CC(CC(C)SCC)CC2=O` (centres unmarked): -11.3%; for `CC(=O)O[C@]1(C(C)=O)CC[C@H]2[C@@H]3C=CC4=CC(=O)C=C[C@]4(C)[C@H]3CC[C@@]21C`: 17.2%; for `Cc1cccc(S(=O)(=O)c2c(N)n(/N=C/c3ccco3)c3nc4ccccc4nc23)c1`: 10.1%. The same measure for `Cc1nc2cc(-c3ccccc3)nn2c(N)c1-c1ccccc1`: 12.7%; for `CC(C)n1cc([C@@H]2C[C@H]3CN(Cc4cccc(Cl)c4)C(=O)[C@]34CCCN24)cn1`: 0.99%. The same measure for `CCCN(CC(=O)Nc1cc(C)on1)CC(=O)Nc1ccccc1C`: 12.2%; for `Cc1ccc(C)c(OCCC(=O)OC(C)C(=O)Nc2c(C)n(C)n(-c3ccccc3)c2=O)c1` (centres unmarked): 0.295%; for `COc1ccc(N2C(=O)/C(=C/c3ccc(N(C)C)o3)C(=O)NC2=S)cc1`: 13.6%. Regarding `CC(C)CCNC(=O)C(C)N(C(=O)Cn1nnc(-c2ccc(F)cc2)n1)C1CCCC1` (centres unmarked), the “hERG current change (%, negative = inhibition) at 1uM” value amounted to 0.287%. As to `CC(C)NS(=O)(=O)c1cccc2nsnc12`, the “hERG current change (%, negative = inhibition) at 1uM” value was 0.0421%. The same measure for `Cc1cc(C)c(NC(=O)Cc2ccc(-n3cccc3)cc2)c(C)c1`: 11.4%; for `Cc1cccc(-n2c(SCC(=O)NCc3ccc4c(c3)OCO4)nc3ccccc3c2=O)c1`: 9.15%; for `CCc1nnc(NS(=O)(=O)c2ccc(N=Cc3c(C)[nH]n(-c4ccc(C)c(C)c4)c3=O)cc2)s1`: 10.8%. The same measure for `O=C(N/N=C/c1cccc([N+](=O)[O-])c1)c1cccc(Br)c1`: 14.7%. The same measure for `COc1cc(Cn2c(=O)c3c(OC)c(C)cnc3n(C)c2=O)cc(OC)c1`: 6.04%; for `O=C(CNC(=O)c1ccc(Br)o1)NCc1ccc2c(c1)OCO2`: 10.1%; for `COc1ccccc1C(=O)N/C(=C\c1ccccc1)C(=O)NC(Cc1ccccc1)C(=O)O` (centres unmarked): 13%. As to `O=C(COC(=O)c1ccc(Cl)cc1O)NC(=O)C1CCCCC1`, the “hERG current change (%, negative = inhibition) at 1uM” value amounted to 9.84%. The same measure for `CCOc1ccc2nc(NC(=O)CN3CCN(CC)CC3)sc2c1`: 4.81%; for `CCOC(=O)c1sc(=NC(=O)c2ccco2)n(C)c1C`: 6.99%; for `O=S1(=O)CCC(N=Nc2c(O)n(Cc3ccccc3)c3ccccc23)C1` (centres unmarked): -6.53%. The same measure for `COc1ccc(C(=O)CSc2nc(C)cc(=O)[nH]2)cc1C`: 6.63%; for `CCOc1ccc(Nc2ncnc3c2cnn3C)cc1`: 4.41%.

For the compound `Cc1ccc(C(=O)N2CCCCCC2)cc1S(=O)(=O)Nc1ccccc1`, the “hERG current change (%, negative = inhibition) at 1uM” value is -0.546%. The same measure for `COCCN(Cc1cc2cc(C)ccc2n2nnnc12)C(=S)Nc1cccc(C)c1`: 20.4%; for `Cc1cccc(-n2c(=O)c3c(n4cnnc24)-c2ccccc2CC32CCCCC2)c1`: 2.46%; for `CCc1nc(CN2CCN(c3cc(C(F)(F)F)ccn3)CC2)c(C)[nH]1`: -2.03%. The same measure for `COc1ccc(OCCC(=O)OCC(=O)Nc2ccc(Br)cc2)cc1`: 10.5%.

For `CCOC(=O)C1CCN(CCC(=O)Nc2cc(C)ccc2C)CC1`, the “hERG current change (%, negative = inhibition) at 1uM” value came out at 5.38%. As for `CCCN1CCN(CCCNC(=O)Cn2cc3c(n2)CCCC3)CC1`, the “hERG current change (%, negative = inhibition) at 1uM” value is recorded as 11.1%.

Regarding `O=C(COc1ccc2c3c(c(=O)oc2c1)CCC3)N1CCN(c2ccccc2)CC1`, the “hERG current change (%, negative = inhibition) at 1uM” value is on record as 16.3%. Regarding `CCCN(CC(=O)Nc1ccc(Cl)cc1Cl)C(=O)CC(NC(C)=O)c1ccccc1` (centres unmarked), the “hERG current change (%, negative = inhibition) at 1uM” value was 10.4%. The same measure for `O=C(NCc1ccccc1)c1ccccc1C(=O)c1ncc[nH]1`: 15%; for `COC(=O)C1=C(c2cccc(C#N)c2)C[C@@H]2CC[C@H]1N2C(=O)N1CCCC1`: 15.3%. The same measure for `O=C(COC(=O)c1cn(-c2ccccc2)nc1-c1ccc(F)cc1)Nc1ncc(Cl)cc1Cl`: 2.4%. The same measure for `Cc1nc2c(-c3ccc(F)cc3)c(C)nn2c(C)c1CCC(=O)Nc1ccccc1F`: -9.35%; for `Cn1ccnc1COc1ccc(/C=N/O)cc1`: 12.8%. With `COc1ccc(C(=O)NC(=S)NNC(=O)c2ccc(NC(C)=O)cc2)cc1Br`, the “hERG current change (%, negative = inhibition) at 1uM” value was determined as 11%. The same measure for `Cn1c(NCc2cccs2)nc2ccccc21`: 4.22%.

Regarding `COc1ccc(CS(=O)(=O)CC(C)(O)c2ccc(Cl)cc2)cc1` (centres unmarked), the “hERG current change (%, negative = inhibition) at 1uM” value is 14.7%. The same measure for `COc1ccc(C(=O)/C=C/c2cc(C(=O)O)cc3c2OCOC3)c(O)c1`: 0.557%. Consider `Cc1ccc(N2NC3(CCN(C(N)=O)CC3)NC2=O)cc1`, for which the “hERG current change (%, negative = inhibition) at 1uM” value is reported as 8.75%. Turning to `COC(=O)c1ccc(N2CCN(C)CC2)c(NC(=O)COc2ccc(OC)cc2)c1`, the “hERG current change (%, negative = inhibition) at 1uM” value is on record as -17%. The same measure for `CCOc1ccccc1C(C(=O)NCCOC)N(CCOC)C(=O)Cn1nnc2ccccc21` (centres unmarked): 17.1%. Turning to `COCCCn1c(SCC(=O)OC2CCCCC2)nnc1-c1ccco1`, the “hERG current change (%, negative = inhibition) at 1uM” value is recorded as -19.9%. The same measure for `O=C(C1=C(O)C(=O)N(CCOCCO)C1c1ccccn1)c1cccs1` (centres unmarked): 12.5%; for `OCCNC(=S)Nc1ccc(Cl)c(Cl)c1`: 7.96%; for `COc1ccc(OC)c(S(=O)(=O)Nc2cnc3ccccc3c2)c1`: 2.23%. As for `O=C(N/N=C/c1ccc(-n2ccnc2)cc1)c1cccs1`, the “hERG current change (%, negative = inhibition) at 1uM” value is -4.74%. The same measure for `O=C(Nc1ccccc1Cl)N1CCN(c2ccccn2)CC1`: -8.81%. The same measure for `COc1ccc(Cc2c(C)nc(N)nc2Cl)cc1`: 10.6%. Regarding `CN(C)S(=O)(=O)c1ccc(N2CCN(S(=O)(=O)c3ccc(F)cc3)CC2)c(Cl)c1`, the “hERG current change (%, negative = inhibition) at 1uM” value stood at 9.5%. The same measure for `O=C(C1=C[C@H](c2ccccc2)C[C@H](OCc2ccc(CO)cc2)O1)N1CCN(Cc2ccc3c(c2)OCO3)CC1`: -10.2%.

Turning to `COc1cccc(CNS(=O)(=O)c2cccc(S(=O)(=O)N3CCOCC3)c2)c1`, the “hERG current change (%, negative = inhibition) at 1uM” value was 8.94%. The same measure for `CC(C)NC(=O)CSc1nc2ccccc2n1-c1ccccc1`: 9.59%; for `CCn1cc(C(C)(C)C)c(C#N)c1NC(C)=O`: 3.92%; for `CCN1C(=O)c2ccc(C(=O)NCc3ccc4c(c3)OCO4)cc2C1=O`: -5.44%. The same measure for `CC(C)Nc1nc(Oc2ccc(Cl)cc2Cl)cc(C(F)(F)F)n1`: 7.4%; for `Cc1ccc(CN2CCNC(=O)C2CC(=O)N(C)C2CCCCC2)cc1` (centres unmarked): 8.49%. With `CC(Oc1ccc(F)cc1)C(=O)Nc1sc2c(c1C(=O)NCc1cccnc1)CCCC2` (centres unmarked), the “hERG current change (%, negative = inhibition) at 1uM” value was -1.6%. The same measure for `Cc1noc(C)c1S(=O)(=O)N(CC(=O)NCc1ccc2c(c1)OCO2)c1ccc(C(C)C)cc1`: 10.2%; for `COc1ccc(N(CC(=O)NCc2ccc3c(c2)OCO3)C(=O)CCC(=O)Nc2ccccn2)cc1`: 14.8%; for `C[C@@H]1CC[C@@]23COC(=O)C2=CCC[C@@H]3[C@@]1(C)CC/C(=C/CO)CO`: 10.2%. The same measure for `COc1ccc2c(c1)cc(C(=O)N[C@@H](Cc1ccccc1)C(=O)N[C@@H](C)C(=O)O)n2C`: 14.1%; for `COC(=O)c1cc(NC(=O)c2cccc(F)c2)cc(C(=O)OC)c1`: 12.2%. The same measure for `CCCCn1c(N)c(N(CCOC)C(=O)COC(=O)COc2c(C)cccc2C)c(=O)[nH]c1=O`: 6.64%; for `CNC(=O)/C(C#N)=c1\s/c(=C/C(=O)OC)c(=O)n1-c1ccccc1`: 16.4%. As to `COc1ccccc1OCCCn1cc(C=O)c2ccccc21`, the “hERG current change (%, negative = inhibition) at 1uM” value was determined as 11%. As for `O=C(O)CCN1C(=O)c2ccc(NC(=O)COc3ccccc3)cc2C1=O`, the “hERG current change (%, negative = inhibition) at 1uM” value amounted to 14.4%. The same measure for `CC(=O)N1c2ccc(S(=O)(=O)N(C)CC(=O)N(C)Cc3ccccc3)cc2CC1C` (centres unmarked): 10.2%. The same measure for `CCc1nnc(NC(=O)c2sc3nc(C)cc(COC)c3c2N)s1`: -0.926%.

Take `CC(C)c1nnc(NC(=O)c2ccc3c(c2)OCO3)s1`: the “hERG current change (%, negative = inhibition) at 1uM” value is 4%. The same measure for `COc1ccc(/C=C2\Sc3ccc(C(=O)NCc4cccnc4)cc3N(C)C2=O)cc1OC`: 4.76%. The same measure for `COc1ccc(NC(=O)CSc2nnc(CC(=O)Nc3ccc(F)cc3)n2C)cc1`: 8.65%; for `CCOC(=O)c1cc(-c2ccncc2)nc2c1c(C)nn2-c1ccccn1`: -18.1%.

For `Cc1ccccc1C(=O)Nc1ccc(C(=O)N/N=C/c2ccc(O)cc2)cc1`, the “hERG current change (%, negative = inhibition) at 1uM” value was found to be 19%. Consider `Cc1nnc(SCC(=O)N2CCC(c3noc4ccc(F)cc34)CC2)s1`, for which the “hERG current change (%, negative = inhibition) at 1uM” value is listed as -9.72%. The same measure for `COc1ccccc1-n1cnnc1SCC(=O)N1CCN(C(=O)c2ccco2)CC1`: 7.03%; for `CC(C)CCNC(=O)c1onc(CSc2nc3ccccc3[nH]2)c1C(=O)NCCC(C)C`: 4.61%.

As for `COc1ccc(OC(C)C(=O)NC2CCCCCC2)cc1` (centres unmarked), the “hERG current change (%, negative = inhibition) at 1uM” value amounted to 9.61%. The same measure for `CCn1c(/C=N/n2cnnc2)nc2ccccc21`: 5.93%; for `COc1ccccc1-c1c(C(F)(F)F)oc2cc(OC(=O)c3cccc([N+](=O)[O-])c3C)ccc2c1=O`: 17.2%.

As for `Cc1cc(NC(=O)c2ccc([N+](=O)[O-])cc2)no1`, the “hERG current change (%, negative = inhibition) at 1uM” value came to 13.7%.
